Some of the results follow. Single values of this set are uncertain.
Tested on: U2OS
Test: Cell Painting induction (percent of morphological features significantly changed vs DMSO); higher = stronger morphological change
Settings: 10 µM, 20 h
Method: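 Cell Painting assay in U2OS cells: compounds at 10 µM for 20 h, six dyes, 579 robust CellProfiler features as Z-scores vs DMSO median (MAD). Induction is the % of significantly changed features (active if ≥5%); relative cell count is in % of DMSO. The primary run holds DCM compounds preselected for induction ≥10%; the confirmation repeat defines active compounds (370 of 549). Replicate agreement is low, attributed to precipitation.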

[1] = run: primary screen (compounds selected for induction >=10%)
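Note: stains mark DNA, RNA and nucleoli, ER, actin, Golgi, plasma membrane and mitochondria, read by high-content imaging, with DMSO controls at matching solvent concentration.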

Compound	Cell Painting induction (run: confirmation repeat)	Cell Painting induction [1] [%]
COc1ccc(C(=O)Nc2ccc(S(=O)(=O)NC(C)(C)C)cc2)c(OC)c1	active: 15.9%	15.4
Cc1ccc(NC(=O)c2cnn(-c3ccccc3)c2C2CCNCC2)c(Cl)c1	active: 30.6%	30.1
CCOC(=O)c1ccc(NC2c3ccccc3C(=O)N2c2ccccn2)cc1 (stereo unspecified)	inactive: 3.1%	20
CCN1CCN(CCCNC(=O)c2ccc3c(=O)n(CCc4ccccc4)c(=O)[nH]c3c2)CC1	active: 19.2%	15.7
COc1ccc(NC(=O)c2cc(S(=O)(=O)N3CCOCC3)cn2C)cc1Cl	inactive: 4.7%	13.6
Cc1cccc(-n2ncc(C(=O)Nc3ccc(F)c(Cl)c3)c2C2CCNCC2)c1	active: 50.4%	25.6
COc1ccc(N2CCN(C(=O)c3ccc4c(Cl)c5c(nc4c3)CCCC5)CC2)cc1	inactive: 0.9%	20
CN(C1CCCCC1)C(CNS(=O)(=O)c1ccc(Cl)cc1)c1ccccc1 (stereo unspecified)	active: 26.3%	10.9
COc1ccc(OC)c(CCNC(=O)CN2C(=O)COc3ccc(S(=O)(=O)N4CCOCC4)cc32)c1	inactive: 2.4%	12.1
CCn1cc(C(=O)NC2CCCCCC2)c(=O)c2cc(S(=O)(=O)N3CCCCC3)ccc21	inactive: 0.3%	24.2
CCN(CC)CCN1C(=O)[C@@H]2C(C(=O)Nc3cccc(SC)c3)[C@@H]3C=C[C@]2(O3)C1C(=O)NC1CCCC(C)C1C (stereo partly specified)	active: 58.5%	56
Cc1ccccc1CS(=O)(=O)CCC(=O)NCCCN1CCN(c2ccccc2F)CC1	active: 7.3%	27.3
CCOC(=O)c1ccc(NC(=S)NC2CC(C)(C)NC(C)(C)C2)cc1	active: 36.3%	49.1
CCOC(=O)C1CCCN(C(=O)C2CCN(S(=O)(=O)c3c(C)noc3/C=C/c3ccccc3F)CC2)C1 (stereo unspecified)	active: 46.6%	43.2
O=C(Nc1cccc(Cl)c1)c1cnn(-c2ccccc2)c1C1CCNCC1	active: 39%	36.1
CCOC(=O)c1ccc(NC(=O)c2cc(OC)c(OC)c(OC)c2)cc1	active: 14.5%	20.9
COc1ccc(C)cc1S(=O)(=O)n1cnc2ccccc21	active: 53.2%	41.6
CCCC(=O)Nc1cc(-c2nn(C)c(=O)c3ccccc23)ccc1N1CCCCC1	active: 12.3%	11.9
CN(C1CCCCC1)S(=O)(=O)c1ccc2c(c1)c(=O)c(C(=O)N1CCc3ccccc3C1)cn2C	inactive: 0%	27.3
CCc1cccc(NC(=S)N(CCN(C)C)C2CCN(C(C)C)CC2)c1	inactive: 0%	51.5
COC(=O)c1cc(NC(=O)C2(S(=O)(=O)c3ccc(Cl)cc3)CC2)cc(C(=O)OC)c1	active: 11.9%	11.7
COc1ccccc1N1CCN(CCC(=O)Nc2cccc(F)c2)CC1	inactive: 1.6%	14.3

Compound	Cell Painting induction (run: confirmation repeat)	Cell Painting induction [1] [%]
COc1ccc(Nc2c3c(c(C#N)c4nc5ccccc5n24)CCC3)cc1	inactive: 0%	55.4
Cc1ccc2nc(-c3cccnc3)cc(C(=O)Nc3ccc(F)cc3C)c2c1	active: 12.3%	13.1
CCN(CC)S(=O)(=O)c1cccc(-c2nnc(-c3ccc(C)cc3)o2)c1	inactive: 0.2%	22.1
COc1ccc(-n2ncc(C(=O)Nc3cc(Cl)ccc3C)c2C2CCNCC2)cc1	active: 27.3%	33.2
CC(C)(C)OC(=O)N1CCC(c2c(C(=O)NCC3CCN(C4CCCC4)C3)cnn2-c2ccccc2)CC1 (stereo unspecified)	active: 49.6%	43
CCc1cccc(C)c1NC(=S)N(CCCN1CCN(C)CC1)Cc1cccs1	active: 22.6%	17.4
CCCN1CCN(CCCNC(=O)C(CC)n2nc(C)n3c(cc4occc43)c2=O)CC1 (stereo unspecified)	active: 12.6%	17.6
CC(=O)c1ccc(N2CCN(S(=O)(=O)c3ccccc3)CC2)c(F)c1	active: 11.7%	14
COc1ccccc1CNC(=O)c1ccc2c(=O)n3c(nc2c1)CCCCC3	inactive: 2.4%	11.1
Cc1ccc(NC(=O)C2CCCN(S(=O)(=O)c3c(C)noc3/C=C/N(C)C)C2)c(C)c1 (stereo unspecified)	inactive: 1.4%	15.9
CC(C)Cn1cc(C(=O)NCCCOC(C)C)c2c3ccccc3n(C)c2c1=O	inactive: 0.2%	18.3
CC1CCCN(C(=O)c2ccc3c(=O)n4nc(Nc5ccccc5)sc4nc3c2)C1 (stereo unspecified)	inactive: 0.9%	14.7
CCN1CCN(C2CCCCC2NS(=O)(=O)c2ccc(Cl)cc2)CC1 (stereo unspecified)	inactive: 1.6%	22.1
CC(C)OC(=O)Nc1ccc2c(c1)N(C(=O)CCN1CCOCC1)c1ccccc1CC2	active: 8.3%	17.4
CCOc1cc2[nH]c(=O)n(CCCN3CCN(c4ccc(OC)cc4)CC3)c(=O)c2cc1OCC	active: 17.4%	33.3
Cn1nc(C(=O)NCc2cccc(Cl)c2)c2c1-c1ccccc1S(=O)(=O)C2	active: 9.2%	27.5
COC(CNC(=O)c1ccc2c(=O)n(Cc3ccc(Cl)cc3)c(=S)[nH]c2c1)OC	active: 46.6%	40.6
COc1cc(/C=C2/SC(=S)N(Cc3ccccc3)C2=O)ccc1OS(C)(=O)=O	active: 40.6%	43.5
CCc1ccc(NC(=O)c2cc(S(=O)(=O)N3CCCC3)ccc2F)cc1	inactive: 4.5%	11.2
COc1cccc2cc(C(C)N(CCCN3CCOCC3)C(=S)Nc3ccccc3C)oc12 (stereo unspecified)	inactive: 3.8%	10.4
CCOc1ccccc1NC(=O)CSc1nc2ccccc2nc1N1CCOCC1	active: 13.5%	11.2
